In all, about 200,000 compounds went through this assay and about 560 (0.28%) were called active. This list was built around the results that the source calls inconclusive (neither active nor inactive); the mix of calls is not that of the screen. The call rests on the fitted dose curve; in most records, active means well fitted inhibition curve with a large enough effect; inconclusive means small, poorly fitted or top-dose-only effect; inactive means flat fitted curve, though single readings scatter. No potency is given beside an inconclusive call; the fits are too rough.
Target: Luciferin 4-monooxygenase (Photuris pensylvanica) (UniProt Q27757)
Experiment: Counterscreen for Luciferase (Kinase-Glo TM) Inhibition; further: nearly all actives have a fitted effect of over 60% in size
Conditions: ATP luminescence, 8 min; series mostly up to 38.3 µM; activity change, negative = inhibition: at the top concentration
Procedure, shortened: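 Recombinant Kinase-Glo luciferase, 10 uM ATP (linear range), luciferin; imidazole pH 7.2 / KCl / MgCl2 / Tween / BSA buffer; 8 min RT; luminescence.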
On the % scale 0 is the no-effect control and ±100 the full control effect; potency means the concentration at half of the fitted maximal effect; tags describe the fitted curve by direction and shape.

SMILES | Potency | activity change, negative = inhibition
Fc1ccccc1-c1nc(-c2ccccc2)no1 | inconclusive [inhibitor, partial curve] | 
Cc1oc(-c2nc3ccccc3n2C)cc1C(=O)c1ccccc1 | inconclusive [inhibitor, single point] | 
Cc1cc(C)cc(OCC(=O)N2Cc3ccccc3CC2C(=O)O)c1 (configuration not stated) |  | inactive: 0.727%
COc1cccc(NC(=O)C(=O)N2CCOCC2)c1 | inconclusive [inhibitor, single point] | 
CCN(CC)C(=O)CSc1nc2ccccc2c(=O)n1CCC(=O)NCc1ccc(F)cc1 |  | inactive: 1.75%
O=C(Nc1ccccc1C(=O)N/N=C/c1ccco1)c1ccccc1 | inconclusive [inhibitor, single point] | 
COc1ccccc1-c1nc(-c2cccc(C)c2)no1 | inconclusive [inhibitor, partial curve] | 
CN1C(=O)/C(=C\c2cc(N=Nc3ccccc3)ccc2O)SC1=S | inconclusive [inhibitor, single point] | 
COCCCn1cnc2oc3nc4ccccc4nc3c2c1=O |  | inactive: -7.26%
CCCCc1ccc(NC(=O)C(C)CC)cc1 (configuration not stated) | inconclusive [inhibitor, single point] | 
Oc1ccccc1-c1cc(-c2ccco2)[nH]n1 |  | inactive: -3.98%
COC(=O)c1ccccc1NC(=O)Nc1cc(C)ccn1 | inconclusive [inhibitor, single point] | 
COc1ccc(N=Nc2nc3ccc(Br)cc3n2C)cc1 | inconclusive [inhibitor, single point] | 
O=C(/C=C\Nc1ccccn1)c1ccc(Cl)cc1 | inconclusive [inhibitor, single point] | 
CC(=O)c1cccc(NC(=O)c2cnn3ccccc23)c1 | inconclusive [inhibitor, single point] | 
Cc1c(/C=C/C(=O)c2ccccc2O)cnn1C | inconclusive [inhibitor, single point] | 
Cn1cc(C(=O)N/N=C/c2cccs2)c2ccccc21 |  | inactive: -0.479%
Cc1cc(C)nc(NC(=O)/C=C/c2ccc3c(c2)OCO3)c1 | inconclusive [inhibitor, partial curve] | 
Cc1cc(=O)n2[nH]c(-c3cccnc3)nc2n1 | inconclusive [inhibitor, partial curve] | 
Cc1cnc(C(=O)Nc2ccc(F)cc2)cn1 | inconclusive [inhibitor, partial curve] | 
c1ccc2c(c1)nnn1c3ccccc3nc21 | active: 12.6 µM | 
Nc1c(-c2cccc([N+](=O)[O-])c2)nc2ccccn12 | inconclusive [inhibitor, partial curve] | 
